Source: PubChem BioAssay AID1347165 (National Center for Advancing Translational Sciences (NCATS), 2019)
The whole screen tested about 220,000 compounds, of which about 5,700 (2.6%) were called active. The shares of active, inactive and inconclusive entries below differ from those in the screen. Calls come from the whole dose curve; as a rule, active = well fitted inhibition curve with a large enough effect; inconclusive = small, poorly fitted or top-dose-only effect; inactive = no such curve, though single readings can be large or run the other way. Potencies beside an inconclusive call are fits to weak or partial responses and may not hold up.

target: Lysine-specific demethylase 5B (Homo sapiens) (UniProt Q9UGL1); assay: Primary screen for KDM5B Histone Demethylases FDH-coupled qHTS; conditions: FDH-coupled NADH fluorescence (FDH is formaldehyde dehydrogenase); activity change, negative = inhibition: at 57.7 µM (top of the series) unless noted; note: nearly all actives have a fitted effect of over 70% in size; for activity change, negative = inhibition: 0% is about no effect
Chain of UniProt Q9UGL1 (Q9UGL1 whole entry, looked up): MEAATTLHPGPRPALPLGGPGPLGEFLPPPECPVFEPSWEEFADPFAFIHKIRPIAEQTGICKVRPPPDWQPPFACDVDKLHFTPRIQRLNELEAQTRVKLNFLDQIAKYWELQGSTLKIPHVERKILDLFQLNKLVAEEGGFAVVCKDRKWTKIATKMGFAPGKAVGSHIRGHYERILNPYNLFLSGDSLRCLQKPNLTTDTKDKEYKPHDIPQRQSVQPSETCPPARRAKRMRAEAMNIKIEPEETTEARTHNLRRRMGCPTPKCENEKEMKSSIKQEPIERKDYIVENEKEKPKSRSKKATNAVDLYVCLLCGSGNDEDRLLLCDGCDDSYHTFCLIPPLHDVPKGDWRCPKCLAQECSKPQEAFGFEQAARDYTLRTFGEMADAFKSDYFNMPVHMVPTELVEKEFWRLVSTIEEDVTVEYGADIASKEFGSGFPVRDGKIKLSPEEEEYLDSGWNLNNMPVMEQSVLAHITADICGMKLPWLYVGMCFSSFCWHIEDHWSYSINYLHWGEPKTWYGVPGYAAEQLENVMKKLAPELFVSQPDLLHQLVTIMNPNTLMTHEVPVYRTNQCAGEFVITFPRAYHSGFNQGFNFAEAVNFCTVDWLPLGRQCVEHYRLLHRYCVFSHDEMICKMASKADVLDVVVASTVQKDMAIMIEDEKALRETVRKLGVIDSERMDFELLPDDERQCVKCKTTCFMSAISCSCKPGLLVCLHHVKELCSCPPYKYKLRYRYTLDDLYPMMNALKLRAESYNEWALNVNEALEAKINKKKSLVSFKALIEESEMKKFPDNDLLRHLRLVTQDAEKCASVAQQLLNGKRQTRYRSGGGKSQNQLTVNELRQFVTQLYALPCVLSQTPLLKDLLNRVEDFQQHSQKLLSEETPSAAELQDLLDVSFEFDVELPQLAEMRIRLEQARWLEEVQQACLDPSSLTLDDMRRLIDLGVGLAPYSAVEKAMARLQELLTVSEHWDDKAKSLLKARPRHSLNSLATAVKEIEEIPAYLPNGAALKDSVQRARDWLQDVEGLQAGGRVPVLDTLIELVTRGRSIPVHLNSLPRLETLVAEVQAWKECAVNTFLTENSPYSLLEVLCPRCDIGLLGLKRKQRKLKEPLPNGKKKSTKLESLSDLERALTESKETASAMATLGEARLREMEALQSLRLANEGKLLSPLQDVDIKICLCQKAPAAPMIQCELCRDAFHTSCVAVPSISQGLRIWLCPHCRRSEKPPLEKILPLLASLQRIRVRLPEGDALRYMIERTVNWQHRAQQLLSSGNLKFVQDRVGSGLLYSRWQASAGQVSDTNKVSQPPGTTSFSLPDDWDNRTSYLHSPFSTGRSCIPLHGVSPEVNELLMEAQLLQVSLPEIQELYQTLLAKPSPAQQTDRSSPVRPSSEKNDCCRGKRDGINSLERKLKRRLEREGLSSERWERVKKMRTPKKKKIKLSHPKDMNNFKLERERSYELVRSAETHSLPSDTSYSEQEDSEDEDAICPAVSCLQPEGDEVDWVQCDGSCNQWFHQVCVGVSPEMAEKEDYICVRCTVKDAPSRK
Procedure, shortened: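 Measured: NADH fluorescence change, 30 min, RT. System: KDM5BΔAP 200 nM final, H3K4me3 peptide, α-KG, Fe(II), ascorbate, NAD⁺ plus FDH, pH 7.5 HEPES. Compounds: titrated, 10 min pre-incubation with enzyme.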
Potency is the fitted concentration of half-maximal effect; tags give direction and shape of the fitted curve.

| Structure (SMILES) | Potency | activity change, negative = inhibition |
| --- | --- | --- |
| CCC(CC)NC(=O)COc1ccc2ccc(=O)oc2c1 | inconclusive: 25.1 µM [inhibitor, single point] | – |
| CCOC(=O)CC(=O)CSc1nc2ccccc2c(=O)n1CCc1ccccc1 | inconclusive: 14.1 µM [inhibitor, partial curve, poor fit] | – |
| Cn1c2c(c3cc(F)ccc31)CN(C(=O)Nc1cccc(F)c1)CC2 | inconclusive: 31.6 µM [inhibitor, partial curve, poor fit] | – |
| O=C(Nc1cccc(-c2ccc(N3CCOCC3)nn2)c1)Nc1cccc(Cl)c1F | inconclusive: 25.1 µM [inhibitor, partial curve] | – |
| COC[C@@H]1CN(Cc2cccc(C#N)c2)C[C@H]1c1ccccn1 | – | inactive: -19% |
| Cn1cnc(S(=O)(=O)N2CC[C@H]3C(=O)NCCCCCCN(Cc4ccncc4)[C@@H]3C2)c1 | inconclusive: 28.2 µM [inhibitor, single point] | – |
| Cc1ccc(SCc2nc(-c3ccc(C(=O)NCc4ccccc4Cl)cc3)oc2C)cc1 | inconclusive: 28.2 µM [inhibitor, partial curve, poor fit] | – |
| COc1cc(NC(=O)c2cc(S(=O)(=O)N3CCCC3)c[nH]2)cc(OC)c1 | inconclusive: 31.6 µM [inhibitor, partial curve, poor fit] | – |
| COc1ccc(Cl)cc1Nc1cc(C)nc2nc(-c3ccco3)nn12 | – | inactive: -0.704% |
| FC(F)(F)c1cc(N=Cc2ccc(-c3ccccc3)cc2)cc(C(F)(F)F)c1 | inconclusive: 22.4 µM [inhibitor, partial curve, poor fit] | – |
| COc1ccc(-c2nc(C#N)c(N3CCCC3)o2)cc1OC | inconclusive: 1.78 µM [inhibitor, partial curve, poor fit] | – |
| COc1ccc(CN2CC3(C2)C(=O)N(Cc2ccc(C)o2)C(=O)[C@@H]2C[C@@H](O)CN23)c2ccccc12 | inconclusive: 17.8 µM [inhibitor, partial curve, poor fit] | – |
| COc1cccc(N2CCN(Cc3cn(-c4ccccc4)nn3)CC2(C)C)c1 | – | inactive: -6.97% |
| Cc1cccc(Cn2c(SCc3ccc(C(=O)NCCc4ccccc4)cc3)nc3cccnc32)c1 | inconclusive: 28.2 µM [inhibitor, partial curve, poor fit] | – |
| COc1cccc(-c2cnc3n[nH]c(-c4ccc5c(c4)OCO5)c3n2)c1 | – | inactive: -28.3% [at 86.2 µM] |
| CCCOCCNC(=O)c1c(C)noc1-c1cccs1 | active: 25.1 µM | – |
| Cc1ccc(CN2CCCCCCNC(=O)[C@@H]3CCC[C@@H]32)o1 | inconclusive: 31.6 µM [inhibitor, partial curve, poor fit] | – |
| Nc1nccnc1C(=O)NCc1cn(-c2ccccc2)nc1-c1ccccc1 | inconclusive: 28.2 µM [inhibitor, partial curve, poor fit] | – |
| COc1ccc(-c2cc(C(=O)NC3CC3)c3c(C4CCNC4)noc3n2)cc1 (configuration not stated) | active: 79.4 µM | – |
| C[S+](=O)([O-])c1ccc(-c2cnc3n[nH]c(-c4ccccc4)c3n2)cc1 | active: 35.5 µM | – |
| COCCN1Cc2ccc(NCc3ccccc3)nc2C(C)(C(=O)NC2CCOCC2)C1 (configuration not stated) | active: 11.2 µM | – |

| Structure (SMILES) | Potency | activity change, negative = inhibition |
| --- | --- | --- |
| CCOc1cc(/C=C/C(=O)c2ccc(OCC(=O)O)c(OC)c2)cc(Cl)c1O | – | inactive: -10.7% |
| COc1cccc(N2CCN(C(=O)Cn3cnc4onc(-c5ccc(F)cc5)c4c3=O)CC2)c1 | inconclusive: 10 µM [inhibitor, partial curve, poor fit] | – |
| COc1ccc2[nH]c3c(c2c1)CCNC31CCN(C(=O)c2nccn2C)CC1 | inconclusive: 17.8 µM [inhibitor, single point] | – |
| Cc1ccc(Cl)cc1NC(=O)CN1C(=O)NC2(CCCCC2)C1=O | – | inactive: 4.6% |
| Cn1cc(S(=O)(=O)N2CCCC2)cc1C(=O)Nc1ccc(C(F)(F)F)cc1 | inconclusive: 1.26 µM [inhibitor, full curve, poor fit] | – |
| Cc1ccc(N2C(=O)CN=C2Nc2nc(C)cc(C)n2)cc1 | inconclusive: 35.5 µM [inhibitor, single point] | – |
| O=C(O)c1cnc(-c2cc(NCc3ccccn3)nc3[nH]ccc23)c(Cl)c1 | inconclusive: 25.1 µM [inhibitor, single point] | – |
| O=C(NCc1ccc(Cl)cc1)c1cc2cccnn2n1 | active: 31.6 µM | – |
| Cn1c(=O)c2c(ncn2CCC(=O)Nc2cc(F)cc(F)c2)n(C)c1=O | – | inactive: 20.9% |
| COc1ccc2ccc(OCc3cccc(C#N)c3)cc2c1 | – | inactive: -1.23% |
| O=C(Nc1nc2cc3c(cc2s1)OCO3)c1ccc(N2C(=O)CCC2=O)cc1 | inconclusive: 20 µM [inhibitor, single point] | – |
| O=C1CCN(S(=O)(=O)c2ccccc2)CCCN(C(=O)CN2CCOCC2)CCN1 | inconclusive: 6.31 µM [inhibitor, partial curve, poor fit] | – |
| CCN(CC)S(=O)(=O)c1ccc(C)c([N+](=O)[O-])c1 | – | inactive: 1.98% |
| CSc1ccc(-c2ccc3c(c2)C(=O)N2CCN(C(=O)CC(C)(C)C)C[C@@H]2C(=O)N3)cc1 | inconclusive: 10 µM [inhibitor, single point] | – |
| Cn1cc(-c2cnc3[nH]cc(CC(=O)Nc4cccnc4)c3c2)cn1 | active: 39.8 µM | – |
| O=C(CSc1n[nH]c(-c2ccccc2Cl)n1)N1CCN(c2ccc(F)cc2)CC1 | – | inconclusive: -34.1% [inhibitor] |
| O=C1CO[C@H]2CCN(Cc3ccncc3)CC[C@@H]2N1Cc1ccccc1 | inconclusive: 35.5 µM [inhibitor, partial curve, poor fit] | – |
| CCOc1ccc(NC(=O)c2oc3ccccc3c2NC(=O)Cc2ccc(OC)c(OC)c2)cc1 | inconclusive: 39.8 µM [inhibitor, single point] | – |
| CCn1cc(S(=O)(=O)N2CCN(c3ccccc3)CC2)cn1 | – | inactive: 7.86% |
| COc1ccc2nc(/C(C#N)=C/c3ccc(-c4cccc(Cl)c4Cl)o3)[nH]c2c1 | inconclusive: 15.8 µM [inhibitor, partial curve, poor fit] | – |
| Cc1oc(C(O)c2cncnc2)nc1C(=O)Nc1ccc2c(c1)NC(=O)CO2 (configuration not stated) | inconclusive: 35.5 µM [inhibitor, partial curve, poor fit] | – |

| Structure (SMILES) | Potency | activity change, negative = inhibition |
| --- | --- | --- |
| Cc1ccc(-n2nc(CO)c(C(=O)NCCO)n2)cc1 | inconclusive: 15.8 µM [inhibitor, partial curve, poor fit] | – |
| CC(CNC(=O)c1ccc(Cn2c(SCc3ccccc3)nc3cccnc32)cc1)c1ccccc1 (configuration not stated) | inconclusive: 31.6 µM [inhibitor, partial curve, poor fit] | – |
| COc1ccccc1CC(=O)N1CCCc2ncc(C(=O)Nc3cccnc3)cc21 | – | inactive: 2.92% [at 86.2 µM] |
| Cc1ccc(OC2(C(=O)NC(C)c3nn[nH]n3)CCNCC2)cc1 (configuration not stated) | inconclusive: 1.78 µM [inhibitor, full curve] | – |
| CCOC(=O)c1ccc(NC(=O)c2ccc3c(c2)CCN3S(=O)(=O)c2ccc(Cl)cc2)cc1 | inconclusive: 8.91 µM [inhibitor, partial curve, poor fit] | – |
| CCCNC(=O)c1cc2cc(N(C)S(C)(=O)=O)ccc2s1 | – | inactive: 1.27% |
| CCC1(N2CCN(C(=O)Nc3cc(C)ccc3OC)CC2)CCN(C(=O)C(C)C)C1 (configuration not stated) | inconclusive: 39.8 µM [inhibitor, partial curve, poor fit] | – |
| CC(C)(C)C(=O)N[C@H]1CO[C@H]2[C@@H]1OC[C@@H]2Nc1nccc(-c2cccc(C#N)c2)n1 | inconclusive: 35.5 µM [inhibitor, partial curve] | – |
| Cc1cnc(C(=O)N2CCCCCCNC(=O)[C@@H]3C[C@@H](C(=O)N4CCc5ccccc5C4)C[C@@H]32)cn1 | inconclusive: 25.1 µM [inhibitor, single point] | – |
| COc1ccccc1CNc1nc(-c2ccco2)nn1S(=O)(=O)c1ccc(C)cc1 | inconclusive: 25.1 µM [inhibitor, partial curve, poor fit] | – |
| Clc1ccc(CN2CCc3nc(Nc4ccc5c(c4)OCCO5)ncc3C2)cc1 | inconclusive: 28.2 µM [inhibitor, partial curve, poor fit] | – |
| CCOc1ccccc1CN(CCc1ccc2c(c1)OCO2)Cc1cc(OC)c(OC)cc1OC | inconclusive: 15.8 µM [inhibitor, partial curve, poor fit] | – |
| O=C(COC(=O)c1cc([N+](=O)[O-])ccc1Cl)Nc1ccc2c(c1)OC(F)(F)O2 | inconclusive: 31.6 µM [inhibitor, partial curve, poor fit] | – |
| O=C(CSc1nc2ccc(NC(=O)c3ccc(F)cc3)cc2s1)NC1CCCCC1 | inconclusive: 8.91 µM [inhibitor, partial curve, poor fit] | – |
| CCc1ocnc1C(=O)N1CCCC(CNC(=O)c2n[nH]c3ccccc23)C1 (configuration not stated) | inconclusive: 31.6 µM [inhibitor, partial curve, poor fit] | – |
| CC(C)NC(=O)c1nn(C)c2c1CS(=O)(=O)c1ccccc1-2 | inconclusive: 25.1 µM [inhibitor, single point] | – |
| COC(=O)c1cc(Cl)ccc1NC(=O)Cn1c(C)cc(C)c(C#N)c1=O | – | inconclusive: -31.2% [inhibitor] |
| O=C(NCCCc1ccccn1)c1ccc2nc(-c3ccc(F)cc3)cn2c1 | active: 28.2 µM | – |
| Cc1ccc(-n2ncc(C(=O)N3CCN(C4CCCCC4)CC3)c2C2CCN(C(=O)OC(C)(C)C)CC2)cc1 | inconclusive: 15.8 µM [inhibitor, partial curve, poor fit] | – |
| CCc1ccc(Sc2cc(C(=O)NCCCN3CCCC(C)C3)c3ccccc3n2)cc1 (configuration not stated) | inconclusive: 44.7 µM [inhibitor, single point] | – |
